Whole data set: some 33,000 sequences, median “E-score (-0.5 to 0.5)” near -0.054, cut for the highest 2% near 0.39. The list shows a part of the results.
Molecular target: Ylr278c (UniProt Q05854)
Test: PBM E-score (8-mer binding enrichment) (E-score (-0.5 to 0.5)); higher = stronger / more preferred TF binding; most listed sequences are background and not binding sites
Conditions: protein concentration: 200 nM; construct: GST-DNA-binding domain
Procedure: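 Universal 'all 10-mer' protein binding microarrays (Agilent AMADID 015681) probed with GST-tagged S. cerevisiae TFs (full-length or DBD) made by in vitro transcription/translation (PURExpress), about 100-200 nM. Bound TF was detected with fluorescent anti-GST. Each ungapped 8-mer (which stands for itself and its reverse complement) is scored by the PBM enrichment score (E-score), a modified Wilcoxon-Mann-Whitney statistic from -0.5 to +0.5, computed with the Universal PBM Analysis Suite. Scale: above 0.35 generally sequence-specific binding.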

Sequence | PBM E-score
AACCTTCC | 0.0498
ATCGAAAA | -0.129
AAAGTTTA | 0.0725
TAATTACA | -0.0706
CGGGCGCA | 0.138
GATGAAAC | 0.0107
AAGGCCTG | -0.219
AGCGGGGC | 0.165
ACCATACG | -0.0843
AGCGAATG | -0.153
GGTTTACA | 0.0578
AAACATGC | -0.0927
AGTAACGC | -0.149
ATTAGCTG | -0.147
ATCCAAAA | 0.0091
GCTTCAGA | -0.163
CCATAAGA | -0.0653
CTCATGAG | -0.295
GAACTAGC | -0.105
AACGTTTC | -0.256
CAGTAAAG | -0.15
GGACGACA | 0.0893
CGCAGAAA | 0.0305
GGTAGTGA | -0.00488
ATTGGCCC | -0.211

Sequence | PBM E-score
CCGCGGAC | 0.429
AACTTAAA | -0.205
ATACTACA | 0.0379
CACCAGCG | 0.042
AATGAGAG | -0.233
AACACTGT | -0.166
GACGGAAA | 0.35
CTTGCCCA | -0.209
AGTCAGTG | -0.216
AGGAAACC | 0.0384
ACACGGGG | 0.226
AAATTTCG | 0.0227
AGCAGCCT | -0.33
CCGTAAAA | 0.191
GGGTAAAA | 0.145
TCGTCTCA | -0.195
GCATTCGA | 0.0187
CAGCAAAA | -0.152
CCCCCGCG | 0.285
CTCTTACC | 0.0788
CACCAACG | 0.0218
AAAGCTAC | -0.229
CTCCTCTA | -0.261
CACCTATA | -0.241
AGACGTCG | -0.0911

Sequence | PBM E-score
GACGGTAA | 0.127
CTCCAATA | 0.138
CAATTAGG | 0.0143
ACAAAGGA | -0.00647
ATCGGCCG | 0.358
GAAGCGAA | -0.0949
ATGATTAA | -0.0907
TCACACGA | -0.0855
ACAGACTG | -0.175
ACATTCGT | -0.165
AGTATCGG | 0.253
GCCCTGAC | -0.255
TACACTGA | -0.181
GTAAAGAC | -0.0608
CACTGAGC | -0.136
GTGAGAAC | -0.12
AGGGATCA | -0.181
ATTAATTC | 0.206
AGCAACCC | -0.103
CCCTCAAA | -0.094
AACGGGGT | 0.095
CGGAAACC | 0.338
ACAAATGC | 0.0458
AGAAAACA | 0.0327
AAAGGACA | -0.152

Sequence | PBM E-score
TAGCCGCA | 0.041
GTCATGGA | -0.16
CGGTATAA | 0.165
AACAGATT | -0.095
AAGCCGTG | 0.00789
CGGGTTTC | 0.363
AGGCCTAC | -0.167
ATATCCTG | -0.228
CGGTTAAC | 0.08
CATCGTTA | -0.149
GACCTCAC | -0.06
TCCCAGCA | 0.0439
CATTGTGG | -0.0447
ATTCATTA | -0.00812
AAAACGCC | 0.247
GAGGGCCA | -0.0537
CTGTTGCA | 0.109
AGACTGGC | -0.245
ACCTCTTC | -0.00604
GCTATCTA | -0.13
GGCTTACC | -0.0346
AAAACACT | -0.0393
CTTCACTC | 0.00394
CGTTAAGC | -0.051
AGGCCCTC | -0.0303

Sequence | PBM E-score
AACGAGAT | -0.0713
CCAAGTAC | -0.112
AGAACGTC | -0.21
GATTCTCA | -0.0742
ACCTGCGC | 0.19
AGGGACGC | -0.315
AGGCATCG | -0.0932
GAACGTAA | -0.0134
CCCTAACA | -0.141
AAGCTGTC | -0.128
GAGTCTGC | -0.21
CAGCCTTC | -0.156
GTACTGGA | -0.156
AGTCCCGC | 0.225
ACGTTGGA | -0.299
CAATGACA | -0.241
CTACAGCA | -0.214
GAGACCAA | 0.0642
AATTAAGA | -0.156
GATCTTCA | 0.0678
ACTAAAAA | 0.158
GCCTTTTA | -0.183
CTCGAAAG | -0.0372
ACTCCCAA | 0.0108
CGTTCTAG | -0.128

Sequence | PBM E-score
CTAGACAG | -0.045
ACTAGTAC | -0.225
GAGACATA | 0.0839
CGATCACA | 0.0452
CCCTAATA | -0.219
GCTGTTGA | -0.0401
GCATTCAA | -0.23
ACGATGAG | -0.0386
GTGTGCAA | -0.177
CCACCCCA | -0.155
CGGACGCA | 0.272
ATATTACG | 0.0625
CATAAGTA | -0.152
CGCCTGAG | -0.00521
GAAATAAA | 0.0286
ACACACCT | 0.101
CGACCGCG | 0.237
AATGGTAA | 0.0806
CAAACTGA | -0.0902
ATGGGACA | -0.0454
GCACGGCC | 0.153
ACTATGAT | -0.222
ACATTAGC | -0.076
CATTAGAA | 0.00262
ACTTACTC | -0.0871

Sequence | PBM E-score
CGCCTCGC | 0.0203
CGCCCGTA | 0.128
ACCACGAG | -0.157
AGCTTGTC | 0.023
AATGATCG | 0.134
ATTTATAG | -0.184
CAGGACAG | -0.225
ATCAAATC | 0.00979
CCGATTAC | 0.261
AATTGAGA | 0.0618
GAGGCCAA | -0.0462
TACCACTA | -0.219
AAGAAACA | 0.0505
GGGCACCC | -0.0395
ACCAGTAT | -0.00687
GTAGACCA | -0.229
AATATCGT | -0.121
TGCTAACA | -0.0474
CGTTTCAA | -0.0838
ATTGGATA | -0.139
ACCTGGCA | -0.0877
ATCTTATG | -0.0906
ACTGGGTA | -0.173
AAATTTCA | -0.365
AGGGCAGG | -0.294

Sequence | PBM E-score
CGGGAGGA | 0.25
GATGGCGA | 0.057
AGAATACA | -0.00157
AACGAGCG | -0.00334
AAGTCGCG | 0.0326
ATTCTGCG | 0.173
AATCTGGC | -0.0102
GATGCTCA | 0.0423
GGACAGTA | 0.144
CACCTGAA | -0.0681
CTGCTTTA | 0.0716
TCGGTTCA | -0.211
CACCTATC | 0.086
CTACCGGA | 0.348
TAAAATAA | 0.0137
CGGACTTC | 0.473
GCTCGACC | -0.131
ACAGTAAT | -0.0156
CTGGTGCC | -0.216
ATACCATA | -0.115
CGTTGAGC | 0.00593
ACGCCCGT | 0.155
TGGACGAA | -0.116
AAATAACT | 0.00399
CATTAAGG | -0.145

Sequence | PBM E-score
CGACACCG | 0.296
AGCTATGG | -0.148
ACGGCGAA | 0.21
ATCTGTAC | 0.0146
CATGAAAC | -0.0717
TACGTCCA | -0.105
CCCTGGTA | -0.264
GTCGACGA | 0.028
CAACCTAA | -0.243
GAAAGGCA | 0.0414
GGAGTGGA | 0.157
CTAGCGTC | -0.238
ACTGTATA | -0.108
AGTGATCG | -0.144
ATGAACGG | 0.00535
CAAAGAAC | -0.0262
ACCTCAAC | -0.142
CCATCAGA | -0.214
GTATAGAA | -0.095
AGGATCAC | -0.162
CCCTCAAG | -0.169
CTGACGTA | -0.0906
CTCGGTGA | 0.146
GAGAGATA | -0.0188
CCTACAAG | -0.0328

Sequence | PBM E-score
ATGATAGA | -0.0135
CGACTCTA | -0.137
CCCTGACC | -0.169
CACCACAG | -0.0569
ACCAAACA | -0.114
ACAGCCCC | 0.0291
GCGCAGAC | -0.00291
CTCCCGAC | 0.158
AAGGCTTC | -0.0609
ACGCGATG | 0.0899
CCAGAAGA | -0.336
CCTTTCAA | -0.0451
CGGTTCAG | 0.0401
CAGAAATG | -0.269
GGGTGAGA | -0.0949
ACCATTTC | -0.0163
CCCGTAAG | -0.121
AACCCATC | -0.0461
ATGGACAT | -0.0871
CCTCTTTA | -0.185
GTAGTGTA | -0.142
ATTATTGG | 0.143
GCTAAAGC | 0.00721
CCTAGATC | -0.178
ACTCTGCA | -0.118

Sequence | PBM E-score
GCGAGCCA | -0.0892
CAGATCGG | 0.204
CGTACAGC | 0.0807
ATCACCTG | -0.0659
GACCCAAA | -0.0868
TAAGTGAA | -0.072
CGCCACCC | -0.175
GGCAAGAC | -0.0213
GTTATTCA | -0.135
ATGCACTA | -0.231
GCCCTCCC | 0.0213
AGCGATAT | -0.154
CAAAATAC | 0.027
CCAATTGA | -0.183
GATCGACC | 0.0768
ACCCGACC | 0.121
TAGGGCAA | -0.123
CAGTCATA | -0.0452
CCGCTTGA | 0.111
AACAGGCG | -0.0358
GCGTGGCA | -0.137
ATAATGTA | -0.133
CAGTGTTA | 0.0269
CAGCTATG | -0.344
CATGGACA | -0.336

Sequence | PBM E-score
CATGTCCA | 0.083
GTCGCGCA | 0.188
CTACCCAA | -0.213
CTACAAAG | -0.199
AGTGACAG | -0.079
GATCAGAA | -0.275
CATTCAGC | -0.00713
AAGGGCAA | 0.124
ATACCCCG | 0.401
ACAGCGTA | -0.088
GAAGGACA | 0.098
ACTCTACG | -0.208
GGCCTGAA | -0.0348
GGAAACCA | 0.0346
ACTTGTCG | 0.0472
CAATCAAC | 0.0184
AGTTTCTC | -0.0203
AAATGTAA | 0.00897
AGTTCCTA | -0.0971
CTCCCAGA | -0.274
GCCATGGC | -0.217
ACAGAAGC | -0.0288
AGCACCCA | -0.0915
ATACGAAC | -0.0868
GAGGGGGA | -0.223

Sequence | PBM E-score
ACTGATCG | -0.184
GCCTGGGA | -0.0565
AAACTACA | -0.0133
CATCGAAC | -0.114
ACGGCAGA | 0.154
ATCATGTG | -0.0918
AACTTAGT | -0.0604
ATAATGCG | 0.12
GGCTCCCC | 0.0257
CGGGATAC | 0.331
AATGAGAA | -0.14
CCTGTACC | -0.152
CCGACAAC | 0.199
ACCCACCT | -0.117
AGTCGAAT | -0.141
AGGTGGGC | -0.141
AACCGTTC | 0.145
CCTGTCAC | -0.0802
TATAACAA | -0.0224
ATTTCGTC | -0.103
CCCGAGGG | 0.171
GTGAAGTA | -0.0107
ATTGCACA | -0.136
CGCACGAC | -0.0202
CGGGGAGC | 0.242

Sequence | PBM E-score
GAGAAGTA | -0.0218
CGTCACAG | -0.105
ACGCACAC | -0.0458
AGTGTGAT | -0.19
ATAAGCGA | 0.0471
AATAGGTC | -0.116
ACCGATTA | 0.269
CCTCCGAA | 0.441
GAACAGGC | -0.0853
AATAGCGA | -0.0184
AAACCACT | -0.129
GCCCGGAC | 0.406
CTGATTGA | -0.255
ACTCGCTA | 0.0791
AATACCTG | -0.107
GCACTTCC | 0.00163
ATTCCCAC | -0.0578
AATGAGGC | -0.113
GCAATCAC | 0.132

From the supplement of paper PMC3334620
